Data published in PubChem BioAssay AID504832 (National Center for Advancing Translational Sciences (NCATS), 2011).
Out of some 310,000 compounds screened, about 18,000 (5.8%) were called active. Inconclusive results, whose numbers are uncertain, are shown with a selection of clear calls. Calls come from the whole dose curve; as a rule, active = well fitted inhibition curve with a large enough effect; inconclusive = small, poorly fitted or top-dose-only effect, or another doubt; inactive = no such curve, though single readings can be large or run the other way. Potencies of inconclusive entries are left out as doubtful fits.

Test: Primary qHTS for delayed death inhibitors of the malarial parasite plastid, 48 hour incubation
Settings: P. falciparum luciferase growth in erythrocytes; series mostly up to 28.7 µM
Excerpt: The goal of this screen is to discover new antimalarial compounds that act by inhibiting the development of the apicoplast in the malarial parasite Plasmodium falciparum. The biochemical processes that make this organelle essential for erythrocytic stage parasites are not well understood. However, antibiotics such as azithromycin and tetracycline, which target the apicoplast translational machinery, have a potent antimalarial effect.
We have developed a cell-based assay that measures parasite growth based on the expression of an integrated copy of a firefly luciferase reporter. To detect small molecules that cause this "delayed death" phenotype, erythrocytes infected with the luciferase-expressing parasites were incubated with compounds for either one or two generations, corresponding to 48 and 96 hours, respectively. Compounds that inhibit parasite growth in the second generation, but not the first, should be enriched in antimalarials that target the apicoplast. Growth inhibition is detected by a decrease in luciferase activity.
Assay Provider: David Fidock and Eric Ekland, Columbia University
Keywords: NIH Roadmap, MLPCN, MLI, MLSMR, qHTS, NCGC, qHTS, malaria, luciferase, viability
Four microliters of culture medium (RPMI 1640 with 0.5% w/v Albumax (GIBCO), 24 mM sodium bicarbonate and 10 ug/mL gentamycin) were dispensed by a Multi-drop Combi into white solid 1536-well plates (Grenier) and 23 nL compound was added by a pin tool. Four microliters of infected erythrocytes (2% hematocrit, 0.1% parasitemia final concentration) in culture medium were dispensed and the plates incubated for 48 hours at 37 C in 5% CO2. Two microliters of luciferase detection reagent was added and luminescence was detected by a ViewLux (PerkinElmer) reader.
Potency is the fitted concentration of half-maximal effect; tags give direction and shape of the fitted curve.

Compound	Potency
CCNC(=O)/C(=C\C=C\c1ccccc1)NC(=O)c1ccc(Br)o1	inactive
CC(=O)Nc1ccc(NS(=O)(=O)Cc2ccccc2)cc1	inconclusive [inhibitor, single point]
COCCN1C(=O)c2cc(C(=O)Nc3ccc(C)c(F)c3)ccc2C1Nc1ccc(C)c(F)c1 (stereo unspecified)	inconclusive [inhibitor, full curve, poor fit]
C=CCN(c1ccccc1)S(=O)(=O)c1cccc(C(=O)N2CCCC2)c1	inconclusive [inhibitor, single point]
O=C(COC(=O)c1cccnc1SCC(=O)NCc1ccccc1)NCc1ccccc1	inactive
CCN1C(=O)S/C(=C/c2c(OCc3ccc(C(=O)O)cc3)ccc3ccccc23)C1=O	inconclusive [inhibitor, partial curve, poor fit]
CCOc1cc(S(=O)(=O)N(Cc2ccccc2)Cc2ccccc2)c(OCC)cc1-n1cnnn1	inconclusive [inhibitor, partial curve]
Cc1c(C(=O)Nc2ccccc2)csc1-c1ccccc1	inactive
CCN(CC)S(=O)(=O)c1ccc(NC(=O)c2nc3nc(C)cc(C)n3n2)cc1	inconclusive [inhibitor, partial curve]
CCC(Oc1ccccc1)C(=O)Nc1ccc(C)c(S(=O)(=O)N2CCOCC2)c1 (stereo unspecified)	inconclusive [inhibitor, single point]
CC(Sc1nc(N(C)C)nc(N2CCOCC2)n1)C(=O)Nc1ccccc1 (stereo unspecified)	inconclusive [inhibitor, partial curve]
COC(=O)[C@@]1(Cc2ccc(F)cc2)[C@H]2c3cc(C(=O)N4CCCC4)n(CCc4ccccn4)c3C[C@H]2CN1C(=O)c1ccccc1	active: 3.29 µM
Cc1ccc(CNC(=O)c2ccc(F)c(S(=O)(=O)N3CCOCC3)c2)cc1	inconclusive [inhibitor, single point]
CCC(C(=O)OCC(=O)Nc1cc(Cl)ccc1Cl)c1ccccc1 (stereo unspecified)	inconclusive [inhibitor, single point]
COc1ccc(NC(=O)CN2C(=O)COc3ccc(S(=O)(=O)N4CCOCC4)cc32)cc1Cl	inconclusive [inhibitor, single point]
Cc1nnc2n(C3CCCCC3)c(=O)c3c4c(sc3n12)COC(C)(C)C4	inconclusive [inhibitor, single point]
CCN1CCN(CCNC(=O)c2ccc(/C=C3/Sc4ccccc4N(Cc4cccc(Cl)c4)C3=O)cc2)CC1	inconclusive [inhibitor, partial curve, poor fit]
O=C(NCC1COc2ccccc2O1)c1cccc(S(=O)(=O)NCc2ccccc2)c1 (stereo unspecified)	inconclusive [inhibitor, single point]
CC(C)CC(=O)NC(=S)N1CCCCCC1	inactive
Cc1occc1-c1nnc(SCC(=O)Nc2ccccc2)n1Cc1ccccc1	inconclusive [inhibitor, partial curve, poor fit]
O=C1CCc2cc(NS(=O)(=O)c3ccc([N+](=O)[O-])cc3)cc3c2N1CC3	inactive
CC1CCN(CCCNC(=O)c2ccc(N3CCCC3=O)cc2)CC1	inactive
O=C(CCNC(=O)c1ccccc1Cl)Nc1nc(-c2ccc3ccccc3c2)cs1	inconclusive [inhibitor, single point]
COc1ccccc1-c1c(C)oc2cc(OCC(=O)OCc3ccccc3)ccc2c1=O	inactive

Compound	Potency
O=C(O)c1ccccc1NC(=O)c1ccccc1Nc1ccccc1	inactive
CC(Oc1ccc(Cl)cc1Cl)c1nc(-c2ccc(NC(=O)c3ccncc3)cc2)no1 (stereo unspecified)	active: 14.7 µM
Cc1onc(-c2ccccc2Cl)c1C(=O)NCc1ccc(F)cc1	inactive
CC1=CCC2C(=O)N(c3ccccc3OC(=O)c3ccccc3F)C(=O)C2C1 (stereo unspecified)	inactive
CCn1c(SCC(=O)Nc2cc(F)ccc2C)nnc1-c1ccccc1O	inconclusive [inhibitor, single point]
Cc1ccc(N(C)C(=O)c2cnn(-c3ccccc3)c2C)c(C)c1	active: 5.22 µM
Cc1cc(F)ccc1N1CCC(N2CCN(CCC(C)C)C(CCO)C2)CC1 (stereo unspecified)	inconclusive [inhibitor, single point]
CC/C(CC(c1ccccc1)c1c(O)c2ccccc2oc1=O)=N\NC(N)=S (stereo unspecified)	inactive
CC(C)c1ccc(OCC(=O)NNC(=S)NC(=O)C2CC2)cc1	inconclusive [inhibitor, single point]
CCC1CCCCN1CCCNC(=O)c1ccc2c(c1)N(Cc1c(F)cccc1Cl)C(=O)CS2 (stereo unspecified)	active: 13.1 µM
COc1ccc(-c2csc(NC(=O)Cn3nc(C)cc3C)n2)cc1	inactive
CC1(C)C2CCC1(C)C(NC(=O)/C=C/c1ccccc1)C2 (stereo unspecified)	active: 7.38 µM
COc1cccc2[nH]c3c(N4CCC(C)CC4)ncnc3c12	active: 9.28 µM
O=C(c1ccc2nc(Cc3cccc(Cl)c3)oc2c1)N1CCC[C@H]1CO	inactive
CCOc1ccc(CNC(=O)C(C)n2ccc3cc(S(=O)(=O)N4CCCC4)ccc32)cc1 (stereo unspecified)	inconclusive [inhibitor, partial curve]
Cc1ccccc1N=C1NC(=O)/C(=C/c2cccnc2)S1	inconclusive [inhibitor, partial curve, poor fit]
Cc1cccc(/C=C2\Sc3ccc(C(=O)N4CCOCC4)cc3N(C)C2=O)c1	inconclusive [inhibitor, partial curve]
Cc1cc2oc(=O)cc(CN3CCCCC3C)c2cc1Cl (stereo unspecified)	inconclusive [inhibitor, single point]
Clc1ccc(-c2nnc(-c3ccccc3)nc2N2CCSCC2)cc1	inconclusive [inhibitor, single point]
O=C(CCl)Nc1ccc(Oc2cnc3ccccc3n2)cc1	active: 1.65 µM
COc1ccc(O[C@H]2C=C[C@@H](c3ccccc3)O[C@@H]2COC(=O)CC/C(C)=N/OC[C@@H](O)COCc2ccco2)cc1	inconclusive [inhibitor, single point]
Cc1ccc(SCCC(=O)N/N=C/c2cccnc2)cc1	inactive
CCN(CC)c1ccc(/C=N/NC(=O)CN2CCCc3ccccc32)cc1	inactive
COc1ccc(CCCc2nnc(SCC(=O)Nc3nc(C)cs3)n2C)cc1	active: 10.4 µM

Compound	Potency
CCc1cccc(NC(=O)c2ccc(NS(=O)(=O)c3c(C)noc3C)cc2)c1	inconclusive [inhibitor, single point]
COc1ccc2c(=O)c3c(=O)n(CCc4ccccc4)c(C(C)C)nc3oc2c1	active: 7.38 µM
Cc1cc(Cl)ccc1OCCCC(=O)Nc1cccc(-n2cnnn2)c1	inactive
O=C(O)C(Cc1ccccc1)N1C(=O)/C(=C/c2cccnc2)SC1=S (stereo unspecified)	inconclusive [inhibitor, single point]
Cc1[nH]c2ccccc2c(=O)c1C(=O)/C=C/c1ccccc1	inconclusive [inhibitor, partial curve]
CC1CCN(C(C)C(=O)Nc2ccc(S(=O)(=O)N3CCCC3)cc2)CC1 (stereo unspecified)	inconclusive [inhibitor, single point]
Cc1nnc2c3ccccc3c(Cl)nn12	inactive
CN1CCCC(C#CC(O)(c2ccccc2)c2ccccc2)C1 (stereo unspecified)	inconclusive [inhibitor, full curve]
Cc1[nH]c2ccccc2c1/C=C/c1nc2ccccc2c(=O)n1CCO	active: 9.28 µM
CC(C)C(=O)Nc1oc(-c2ccccc2)cc1C#N	active: 1.85 µM
COc1ccc(NC(=O)CC2C(=O)N(c3ccc(Cl)cc3)C(=S)N2CCc2ccncc2)cc1 (stereo unspecified)	inconclusive [inhibitor, full curve, poor fit]
COc1ccc2oc(C(=O)OCC(=O)N3CCCC(C)C3)c(C)c2c1 (stereo unspecified)	inactive
N=C1c2ccccc2CN1NC(=O)CC12CC3CC(CC(C3)C1)C2	inconclusive [inhibitor, partial curve, poor fit]
COc1ccccc1N1CCN(C(=O)c2cc(S(=O)(=O)N3CCOCC3)ccc2C)CC1	inconclusive [inhibitor, single point]
O=C(O)CCC(=O)N1N=C(c2ccccc2)CC1c1ccc2c(c1)OCO2 (stereo unspecified)	inactive
O=C(NC12CC3CC(CC(C3)C1)C2)C1CCCN1C(=O)Nc1ccccc1 (stereo unspecified)	inactive
O=[N+]([O-])c1ccc(N2CCN(CCOCCO)CC2)c([N+](=O)[O-])c1	inactive
COC(=O)COc1ccc2cc(-c3ccccc3)c(=O)oc2c1	inconclusive [inhibitor, single point]
COc1ccc(C(=O)C(Cc2ccccc2)N(C)C)cc1 (stereo unspecified)	inconclusive [inhibitor, single point]
CC(=O)CSc1ncnc2scc(-c3ccc(F)cc3)c12	inconclusive [inhibitor, partial curve, poor fit]
CCOC(=O)N1CCN(C(=O)C2CCCN(c3nc4ccc(OCC)cc4s3)C2)CC1 (stereo unspecified)	inconclusive [inhibitor, single point]
Cc1cc(C)c2nc(/N=C(\N)NC(=O)Nc3ccccc3)nc(C)c2c1	active: 1.85 µM
CCCCN(CC)CCCNC(=S)Nc1ccc2nc(N3CCN(C)CC3)cc(C)c2c1	inconclusive [inhibitor, single point]
